B1: LINE1-full (parent)
chain: UACGUAGGUGGUUUUCCCCUGAUAGUGCUAAGGGGGCCUGGAAGUUUGGACUGGGCAGAGCUCAACACAGCGUGGCAAAGUGGCUGUGGCUAGACUGCCUCUCUGGAUUCCUCGUCACUCAGCAGGGCAUCUCUGAGAGAAAUGCC

Read counts are not given, so values of variants with three or more changes are uncertain.

In this data set the parent is B1. The experiment in a line: self-cleavage, relative activity (ratio to wild type); higher = more cleavage; in vitro, sequencing; the parent is a self-cleaving ribozyme.
Take A2U A69G G114A: the self-cleavage is 0.41.
U5A U15C U62C U81A U96A A107G: the self-cleavage was 0.15.
For the variant A2G U13C U87A A138G A141G, the self-cleavage is 0.38.
As for C3U U45C U52C, the figure is 2.7; as for U5A U73C A124U, 0.82; as for A2G U12A A50U A57C G72A, 0.28.
With A2U U73C U102C, the self-cleavage is 1.58.
As for A2G U12C G53U U108C A140G, the figure is 2.
As for A2G U13C U109C, the figure is 0.84; as for A2G U23C C51U A67U G86A U132C, 0.15.
As for A2G U47C U52C A64G U87A C120U, the figure is 0.4; as for G4U U15C U20C, 1.02.
With C3A A77G C110U A129C, the self-cleavage is 2.02.
Regarding C3U U14C U46C, the self-cleavage was found to be 0.63.
As for A2G U39C A64U A124G, the figure is 0.23; as for G4A U45A U52C U119C, 0.84.
For C3G U13C A124U, the self-cleavage turned out to be 0.
As for G4A G88A A142G, the self-cleavage stood at 0.11.
As for C3U A24G U45C A65U U96G U119A, the figure is 0.27.
Consider A2G U46A A69G, for which the self-cleavage is 0.25.
Take U5C A6G U20A A67G: the self-cleavage was 1.08.
As for C3U A69G U108C, the figure is 0.51; as for U5A U62C U85C U119C, 0.
As for A2G U20C U46A U47C U132C A136G, the figure is 0; as for C3U U13G U46C C51A A67G, 0; as for C3A C103A U112C, 1.08.
The value for U5C A6G U9A A59G was 0; that for U5A U73C U96C was 0.4; that for A2U A57G G125U U132C was 0.96.
As to C3U U9C A50G, the self-cleavage worked out at 0.5.
The value for A2G U39C G97A was 0.2; that for C3A U73C U96C G114A was 0.08; that for U5A U14C A129U was 0.44.
The value for U5A U29C U45C U47C was 1.84.
The value for U5C A22U U39C A65G was 0; that for A2G U12A U23C U91A was 0.16.
Take G4A U9C U26A G33U A77U U112A: the self-cleavage was found to be 0.9.
Take C3U A30G C37G U52A A65G U102C: the self-cleavage was determined as 0.8.
As for A2U U26A U109A U115A A121G U130C A142G, the figure is 1.53; as for G4A A50C U87C A94U C95U, 0.
The value for A2G U47A A78G was 0.22; that for A2G U52C A77G was 0.
With C3U U73A A78G A129U, the self-cleavage amounted to 0.29.
As for C3U U29C A65G, the figure is 0.25.
In the case of U5A U85C U115C U143C, the self-cleavage is 0.89.
The value for C3U A77U A117U A141G was 1.25; that for A2G C99U A107G was 1.02.
As for G4A A57U A78G G106A A138G, the self-cleavage amounted to 0.13.
Consider C3U U5C G58A, for which the self-cleavage came out at 0.15.
As to A2G U87A A107G, the self-cleavage is 0.16.
For the variant A2G C28G U62A, the self-cleavage came out at 0.15.
C3U U45A C101U A141G: the self-cleavage was 1.19.
As for G4A G48A U62A C113U, the figure is 0.04; as for A2G U9A A69U C111U, 0.01.
The value for A2G U15C C17A U73A A142G was 0.6; that for U5A U29C G41A A42G U100C was 0.48.
For the variant G4A A67U U81C A107U A124G, the self-cleavage was determined as 0.
The value for C3A G32A A69U A79C was 0.09; that for A2G U15C U100A U119C U132C was 0.61.
As to A2G C37A U73A U108G, the self-cleavage was found to be 1.31.
As to G4A G7U G139A, the self-cleavage stood at 1.07.
As for A2G U9A A22G U26C G86A, the figure is 0.69; as for U5A U46A A67U U96C A140G, 0.11; as for A2G U46C A64G, 0.23.
The value for A2G C16U U52C was 0; that for A2G U5C U12G U47A A67G was 0.35.
As for A2G U102A U104A U112A, the figure is 1.25; as for C3U A50G U96C A136U, 0.35; as for G4C U73C A78U G126U, 1.82.
As to U5C A22U A59G, the self-cleavage worked out at 0.42.
As for A2G G48A U85C A141G, the figure is 0.47; as for G4A A94U C123U A124G, 0.32; as for A2G U46A U52G G83A, 0.56.
As for G4C A78U U109C U134A, the figure is 2.3; as for A2U U13C A78G, 1.69.
The value for A2G U62C A69U was 0; that for A2G U108C U132A A136G was 1.87; that for G4A A78G A117G was 0.66.
In the case of A2G U73A C76A U96C C103U U119C, the self-cleavage turned out to be 0.09.
Take C3U C37A C68U A69G U100C U115C: the self-cleavage came to 0.13.
As for U5A U12A A69G C113U, the figure is 0.44.
As for C3A A59G G127U A140U, the figure is 0.12.
On to C3U U39C G74C, for which the self-cleavage amounted to 0.67.
As for U5A G70U U143A, the figure is 0.06.
As for U5A U12C G114A, the figure is 1.61; as for G4C U45A U62C, 0.08.
As for A2G U14A G60A C118A, the figure is 0.12; as for C3U U13C U73C U96C U143C, 0.
Regarding C3A U9A A42U U45C U62C, the self-cleavage was determined as 0.24.
As for A2G U109A U115C, the figure is 1.46; as for A2G C66U A67G, 0.
The value for A2G U73G A94G was 0.
As to C3U A31G U104C, the self-cleavage was 0.86.
Regarding A2G U12G A50G C128U A141G U143C, the self-cleavage is 0.94.
The value for A2G U12A C19U G44U was 0.21; that for G4A A22G A24U was 0; that for U5A U9C G89U A141U was 0.17.
The value for U5A U20A U26C A59U A69G C76U U87C was 0.37; that for U5A U15C U91A U104A was 0.33; that for U5A U47A U109A was 0.59.
For the variant A2G U14G A22G, the self-cleavage turned out to be 1.84.
The value for C3U U9C C37A U87C was 0.37; that for A2U A59U U73C A121G U143C was 0.61.
For the variant A2U U14C C110U A129G, the self-cleavage worked out at 0.8.
The value for C3U A50U A69G U87C G127A was 0.11.
The value for U5A G25A U39A was 1.04; that for G4C A79U U108C was 1.84; that for U5A U46C A65G was 0.
As for C3U U23C A141G, the self-cleavage worked out at 0.57.
As for C3A U20C U23C C37U U85C, the figure is 0.14.
As to U5A U23A G35U, the self-cleavage came out at 1.36.
Consider A2G U12G U46C U102C, for which the self-cleavage was 1.19.
In the case of U5A A57G U73A, the self-cleavage was determined as 0.67.
A2G U26C A65G A129C: the self-cleavage is 0.
As to G4A U13C A92G, the self-cleavage was 0.
The value for U5A U20A G35A A77U A140G was 0.88.
As for A2U A77G U112A, the figure is 1.79.
The value for G4A G32A A42G U46C U130C was 1.4; that for A2G U9C A121U A142U was 0.84.
Turning to G4A A138U A142G U143A, the self-cleavage is 0.75.
The value for A2U G33A A64U U108C A142G was 0.8.
As for A2U G53C U62C G70C, the figure is 0.06; as for C3A U23C U130A, 0.93; as for C3A U46C A117G, 0.57.
In the case of A2G U9C U20A U115C U132C, the self-cleavage worked out at 1.02.
As for U5A A30U U132A, the figure is 1.21.
On to G4C U20A A59G U130C U132A, for which the self-cleavage was determined as 0.
As to A2G U5A A57G A67U, the self-cleavage was 0.64.
On to A2G C16U G33A U46C G54C A59G A141G, for which the self-cleavage came to 0.17.
The value for U5A A65G A94G was 0.
A2G U13C U119A: the self-cleavage amounted to 1.56.
The value for A2G G35U U39A A121G was 0.68; that for U5A A42G U130C was 1.84; that for G4C C37G U115A was 1.23.
On to U5A U9C U39A A43G U47A, for which the self-cleavage was 0.37.
The value for U5A C37U U73A was 1.05; that for C3U U45A A67U G88U U104A was 0.05; that for A2G G40A U46C U52A U112C A138G was 0.35.
The value for A2G C38A A64C C71U U81C U109C was 0.06; that for C3A U39C A65G A140G was 0; that for A2G U62A U104A U108A was 0.11.
In the case of A2U U9C U62A, the self-cleavage was 0.15.
In the case of C3U A22U A24U G106U, the self-cleavage was 0.89.
The value for A2G U46C U52A U115A C123U U130C was 1.67.
The value for U5A U20A A43G C56U A124G A136G was 0.13; that for A2G G125A A138G was 0.97.
For G4A U39C U52A, the self-cleavage stood at 0.74.
As for A2U U112C U132C, the figure is 0.92; as for C3U A6G G49A A67G, 0.47; as for A2G U62A U143C, 0.
The value for A2G U47C G82A U96G was 0.08; that for A2U A67G A117G was 0.
In the case of A2G U85C A140G, the self-cleavage stood at 0.
For G4A U20C U47C C71U, the self-cleavage was determined as 0.67.
For the variant A2U U14C U62C, the self-cleavage stood at 0.17.
The value for U5A C18U C68U was 0.34; that for C3U U134C A142G was 0.95; that for C3U U52A A69U was 0.12.
Regarding A2U U39A G75A A117U, the self-cleavage is 0.36.
As for A2G U26C U115C C116A A136U, the figure is 1.29; as for A2G U13C A30G A92U A140G, 1.41; as for C3U U108C U112A, 2.12.
As for C3U U15C A65G U96A, the figure is 0.32; as for A2U G44A U119C, 1.53; as for A2G A138G A142G, 0.92.
The value for U5A U52A A138G was 1.36; that for A2G U23A U62C was 0.61.

(Values after the RNAGym collection of RNA variant scans (doi:10.7554/elife.90254).)
